Read counts are not given, so values of variants with three or more changes are uncertain.

The chains are these.
B1: LINE1-mini (parent)
chain: GGCAGAGCUCAACACAGCGUGGCAAAGUGGCUGUGGCUAGACUGCC

Variants of B1 are the subject of the data set. Kind of data set: self-cleavage, relative activity (ratio to wild type); higher = more cleavage; in vitro, sequencing; the parent is a self-cleaving ribozyme.
For G1U C8U G33A, the self-cleavage was determined as 0.22.

As for G1U C3A C8G A12G U20C, the self-cleavage is 0.01.

Regarding G1U C3A A11C G27A, the self-cleavage worked out at 0.1.

Consider G1U C3U A26U, for which the self-cleavage turned out to be 0.88.

As to G1U A25U C31A, the self-cleavage was 0.04.

Turning to G1U C10U G27C C31A C37A G44A, the self-cleavage stood at 0.01.

Regarding G1U C3U U9A A41C, the self-cleavage was 0.06.

On to G1U A4U U43A, for which the self-cleavage is 0.25.

Turning to G1U A25G A26C G44C, the self-cleavage worked out at 0.31.

For G1U A6U A14U G19C, the self-cleavage was 0.07.

As to G1U A24G A25C G40A, the self-cleavage came out at 0.03.

G1U A26G A39U: the self-cleavage stood at 0.06.

With G1U A12U U43A, the self-cleavage worked out at 0.04.

On to G1U C3A G5U G40U, for which the self-cleavage came to 0.

Take G1U A16U G30U C31U G35C: the self-cleavage is 0.03.

In the case of G1U C10G G17U G29U U32A, the self-cleavage was 0.02.

With G1U C13G A16G C23A A25U, the self-cleavage was found to be 0.22.

For the variant G1U A6U G7A C23G G44A, the self-cleavage stood at 0.03.

Take G1U C13U C37A: the self-cleavage was 0.

Consider G1U C8G A39C, for which the self-cleavage worked out at 0.1.

Consider G1U A14G G29U U34G G40C, for which the self-cleavage came out at 0.

Regarding G1U A11G C31A G40U, the self-cleavage is 0.

Consider G1U A16C A25C, for which the self-cleavage turned out to be 0.12.

Take G1C U20G G27U G44U: the self-cleavage was 0.02.

For the variant G1U C3U C10A, the self-cleavage stood at 0.04.

G1U C3A G21U C37A: the self-cleavage is 0.44.

Consider G1U C10A G22U G29U G44A, for which the self-cleavage is 0.02.

Regarding G1U C8G C10A A12G U20G U34G C46G, the self-cleavage was determined as 0.

Turning to G1U A6C A16U U20C, the self-cleavage was determined as 0.04.

For the variant G1U C8A A24C, the self-cleavage is 0.09.

For G1U C3A G27A U28G C46A, the self-cleavage worked out at 0.22.

For G1U A12G G19A A39C G40U, the self-cleavage came out at 0.

In the case of G1U C3G C10A A24G U34C C46U, the self-cleavage turned out to be 0.03.

Consider G1U A4U G21U C37A, for which the self-cleavage amounted to 0.11.

Turning to G1U C8U A26G G33U, the self-cleavage stood at 0.03.

In the case of G1U C3U C37A, the self-cleavage is 0.14.

Regarding G1U C8U C15A G21A, the self-cleavage is 0.07.

Turning to G1U A12C C18U G19C U28G, the self-cleavage is 0.01.

Consider G1U C13G C23G G35C C37U C46A, for which the self-cleavage amounted to 0.02.

G1U C10U A11C G22A C31G: the self-cleavage stood at 0.01.

In the case of G1U C10A G17U C46A, the self-cleavage came out at 0.04.

G1C U9G C23A C31U: the self-cleavage amounted to 0.

For the variant G1C U20C U34C, the self-cleavage amounted to 0.01.

Turning to G1U A6U C8U A39U, the self-cleavage stood at 0.04.

In the case of G1U A4U U9A C31G C46U, the self-cleavage came out at 0.02.

In the case of G1U A6U C42G C46U, the self-cleavage was 0.1.

With G1U C13A C23A U28G U38C G44C, the self-cleavage was 0.02.

G1U C8A U32G G40A C46A: the self-cleavage is 0.08.

In the case of G1U A16G C37G, the self-cleavage was found to be 0.02.

Consider G1U A26U G33C, for which the self-cleavage is 0.04.

G1U A14C G35A: the self-cleavage came out at 0.

On to G1U C3G G21C G30C, for which the self-cleavage is 0.81.

As to G1U A12G A41C, the self-cleavage stood at 0.05.

Consider G1U A26C G35U A39U G40U C46A, for which the self-cleavage turned out to be 0.12.

For G1U C10G G22C, the self-cleavage was 0.01.

As for G1U C10A A12G, the self-cleavage stood at 0.

For the variant G1U C3A G7C C8A A14G U20G G21C A26C C37A, the self-cleavage was found to be 0.26.

Regarding G1U C10A A11U, the self-cleavage was determined as 0.03.

Turning to G1U A6G U32G C46A, the self-cleavage amounted to 0.02.

G1U C13U A14C C23A: the self-cleavage was 0.03.

Take G1C U20A C42G: the self-cleavage is 0.01.

G1C U20G G21A G36U: the self-cleavage stood at 0.01.

In the case of G1U C8U C15A C23A C31A G44C, the self-cleavage was 0.01.

For G1U A4U C8U G22A, the self-cleavage is 0.08.

Consider G1U C13A C15A, for which the self-cleavage was determined as 0.03.

Take G1U A14G U28G U32A G40U C42U U43C: the self-cleavage amounted to 0.01.

As to G1U A16G G29U G40A, the self-cleavage came to 0.02.

For the variant G1C U9C A24U G33A G44A, the self-cleavage was 0.03.

On to G1U C8U C45A, for which the self-cleavage was 0.05.

As to G1U C3U G7A C8U A14G A26C U38A, the self-cleavage worked out at 0.72.

With G1U C3U A16C G22C, the self-cleavage came to 0.03.

G1U A4C A39U C42U C46U: the self-cleavage amounted to 0.01.

In the case of G1U A6G U20A G27C A39U, the self-cleavage amounted to 0.01.

As to G1U A14U G40C, the self-cleavage was 0.05.

For the variant G1U A16G A26U U32A C37A G40U, the self-cleavage was 0.04.

Take G1U A4U G17C A26C: the self-cleavage amounted to 0.1.

In the case of G1U A14C G22A A25U A41U, the self-cleavage turned out to be 0.01.

Consider G1U C3A C15U C18U G21U A24U G35A U38A, for which the self-cleavage is 0.27.

As to G1U C8U U9G G19U U32G C46U, the self-cleavage turned out to be 0.03.

Turning to G1U C10A A14U U34C, the self-cleavage is 0.03.

As to G1U A11G G29A G35A G36A, the self-cleavage was 0.02.

In the case of G1U A11U C46A, the self-cleavage worked out at 0.13.

G1U C3U C18A U28C U32A: the self-cleavage worked out at 0.08.

As for G1U A39G G40A, the self-cleavage is 0.01.

G1U A11U C45A: the self-cleavage was found to be 0.

With G1C U9C A12U G27C G29U U32A, the self-cleavage worked out at 0.01.

For the variant G1U C3U G21C, the self-cleavage was found to be 0.12.

Regarding G1U C10U U32G, the self-cleavage turned out to be 0.02.

Turning to G1U A16G A26U G40C, the self-cleavage came to 0.

In the case of G1U A4C A14G G22U A24U G30U G33C C37A, the self-cleavage was found to be 0.04.

Turning to G1U A26U C45U, the self-cleavage was determined as 1.28.

In the case of G1C U34A G40C, the self-cleavage was determined as 0.01.

With G1U A4G C13A A16G G30A, the self-cleavage turned out to be 0.06.

Take G1U A4G A6C: the self-cleavage stood at 0.03.

Regarding G1C U28A G35C, the self-cleavage is 0.01.

Turning to G1U A6G U34G G36A, the self-cleavage stood at 0.17.

On to G1U C10U A12G C15U G19A G22A, for which the self-cleavage was found to be 0.01.

In the case of G1U C10A C18U G27C G29U G44A, the self-cleavage was found to be 0.01.

For G1U C13G A25C C31A A39U, the self-cleavage stood at 0.07.

Turning to G1U C13A G21U A24U, the self-cleavage stood at 0.03.

For G1C U9G A14G C45U, the self-cleavage is 0.01.

As to G1U A11U G21U, the self-cleavage was 0.09.

Consider G1U A26C U38A, for which the self-cleavage came out at 0.08.

Take G1U A4C A12U A41C: the self-cleavage is 0.04.

With G1U C13G C15U, the self-cleavage amounted to 0.06.

For G1U A6G C18G G21U, the self-cleavage is 0.02.

In the case of G1C U32C A39C, the self-cleavage worked out at 0.01.

In the case of G1U C8U C18U G22C A24U, the self-cleavage was 0.16.

As to G1U C8G C10A C18A G35U, the self-cleavage was 0.01.

Regarding G1U A16G A39G A41U G44U, the self-cleavage worked out at 0.17.

Consider G1U C3G G19A A26U G35A U38C, for which the self-cleavage came out at 0.06.

With G1C U9G G19U G40A, the self-cleavage came out at 0.

With G1U A16U C23A, the self-cleavage is 0.05.

As to G1C U34A G44U, the self-cleavage was 0.

Take G1U C13U A14C C15A C31G: the self-cleavage stood at 0.05.

As for G1U A12G C18G G22U, the self-cleavage came out at 0.02.

G1C U20C G21U: the self-cleavage turned out to be 0.03.

Consider G1U A6U A11G A14U G19U U32G G36A, for which the self-cleavage stood at 0.

For G1U C3A G5C U9C C15U G33U G35A, the self-cleavage was determined as 0.25.

Regarding G1U A6U G22U C42G, the self-cleavage is 0.04.

For the variant G1U A14G G21U, the self-cleavage is 0.17.

In the case of G1U A16G U20A, the self-cleavage was determined as 0.07.

As to G1U A16C C18G G19A U32A, the self-cleavage came to 0.03.

Turning to G1U C3A C46A, the self-cleavage turned out to be 0.08.

In the case of G1U C8A C10A C45G, the self-cleavage is 0.

Turning to G1U C3A U9C C18A G30C G33A U34G, the self-cleavage was 0.04.

As to G1U C3U A25U G44C C45A, the self-cleavage came out at 0.13.

On to G1U C8G C15A, for which the self-cleavage came to 0.05.

G1C U32A C37G: the self-cleavage worked out at 0.02.

With G1U C8A A14G C42A, the self-cleavage came to 0.19.

As to G1U A6C C10A C42A, the self-cleavage is 0.04.

Regarding G1U A16G U34G, the self-cleavage amounted to 0.04.

For the variant G1U A14G C37U, the self-cleavage was 0.24.

In the case of G1U A16G G17A A24G U28A, the self-cleavage worked out at 0.

Consider G1U C10U A12G C46U, for which the self-cleavage came out at 0.01.

As to G1U C3G G19C A26C, the self-cleavage was determined as 0.08.

Consider G1U A6C G35U G36A, for which the self-cleavage was 0.01.

Turning to G1U A4U C15U G30A, the self-cleavage stood at 0.06.

G1U A12G A25C U38A: the self-cleavage came to 0.05.

Consider G1C U34A G40U G44C, for which the self-cleavage stood at 0.01.

Take G1U C8G A14U U32A G40A: the self-cleavage was determined as 0.01.

As to G1C U32G G36U, the self-cleavage was 0.06.

As to G1C U9G G35U, the self-cleavage turned out to be 0.01.

G1U A4C C18U A39C: the self-cleavage was determined as 0.05.

As for G1U C3U A26C G27C, the self-cleavage stood at 0.09.

Regarding G1U C13A A41U, the self-cleavage amounted to 0.03.

On to G1U C10U C23U G30U G35U, for which the self-cleavage was 0.01.

Regarding G1U C8G A12G C45G C46A, the self-cleavage was determined as 0.01.

With G1U A4G U28G C46U, the self-cleavage was found to be 0.21.

G1U C8U U9C: the self-cleavage amounted to 0.05.

In the case of G1U C8U G40A C45G, the self-cleavage was determined as 0.03.

For the variant G1U C8A A39G, the self-cleavage was 0.39.

Turning to G1U A24C G33U U38C, the self-cleavage came out at 0.01.

As to G1U C8G A24U U32A G33U C37U U43A, the self-cleavage was 0.01.

With G1U C3G A6C C18U G21C A26C C45A, the self-cleavage was found to be 0.52.

In the case of G1U C3G A24C C37A G40U C46U, the self-cleavage worked out at 0.07.

In the case of G1U A12C C18A G19U A24C G29A C42A, the self-cleavage was found to be 0.

For the variant G1U A4G G19U C31G A39G, the self-cleavage was 0.04.

With G1U A11C C23U A25G, the self-cleavage came to 0.03.

On to G1U A25C G30A C45G, for which the self-cleavage stood at 0.05.

On to G1U C3G U34C C37G, for which the self-cleavage stood at 0.11.

With G1U C13G C31U, the self-cleavage was 0.01.

On to G1U A14U G36U, for which the self-cleavage is 0.03.

As for G1U A14U G36C, the self-cleavage was found to be 0.01.

G1U C3U A25G U28C: the self-cleavage stood at 0.19.

Regarding G1U A4G G21A C23A U43G C45A, the self-cleavage turned out to be 0.06.

For G1U A16G C18A C37G A39G, the self-cleavage came to 0.
